Data: the supplement of paper PMC10126150
Values marked as one replicate rest on one cluster of the flow cell; about a third of the high ones do not repeat.

Tested on: ATP
Experiment: switch fluorescence ratio, 500 uM ATP over buffer (Cy3 cluster intensity, sum of 5 cycles each) (fold (ratio)); higher = stronger signal-on switching upon ATP binding; sequences stand for … in TCGTCGGCAGCGTCAGATGTGTATAAGAGACAGTTTTTTTTTTTTTTTTTTTTTTTTT…TC
Details: aptamer strand: ATP DNA aptamer (quencher-CACCTGGGGGAGTATTGCGGAGGAAGG + anchor), 100 nM annealed; ATP concentration: 500 uM; one replicate
Method in brief: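 Clusters carrying Cy3-labelled switching strands on a modified Illumina MiSeq flow-cell were annealed to 100 nM quencher-labelled ATP aptamer and imaged in selection buffer. They were imaged again after 15 min with 500 uM ATP at 22 °C, over five buffer/ATP cycles with NaOH stripping and re-annealing in between. For each cluster, the fluorescence ratio is the summed Cy3 intensity of the target cycles divided by that of the buffer cycles, averaged per switch-domain sequence. Clusters outside 100-1000 RFU were left out.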
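Further: ATP exposure 15 min at 22 °C before imaging.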

| Sequence | switch fluorescence ratio |
| --- | --- |
| GGTGAAAGTT | 0.968 |
| GAGTAGATGC | 1.08 |
| GCGTGTAAA | 1.05 |
| CAACGTAAGA | 1.28 |
| TCTGATCAGT | 0.987 |
| GTCATATTAG | 0.993 |
| CATAGCTGT | 1.01 |
| AAAGATAGA | 1.03 |
| CATCTGTAAG | 1.1 |
| ATTCTAAAAC | 1.02 |
| CAAGTATCGT | 0.968 |
| CGGCACTCCG | 1 |
| CGATGAGGGA | 0.984 |
| AATCCGAGA | 1.07 |
| ATTGGTTTAG | 0.997 |
| GAGGCCTAGG | 1.03 |
| TAGGATGAAT | 0.989 |
| TACAGTTAGA | 1 |
| ATAGGCGGGG | 0.979 |
| CGGATTTACT | 1.06 |
| ATTAATGC | 0.925 |
| ATCATGTAAT | 0.995 |
| TACAAATGAC | 1.04 |
| CCGTGGGGTT | 1.03 |
| TAACTGAGAT | 0.987 |
| TGCTCTTGCT | 1.05 |

| Sequence | switch fluorescence ratio |
| --- | --- |
| GGACTAAGGC | 1.02 |
| CGGGGTAGAG | 0.988 |
| GGTCCCGGCT | 0.926 |
| GCAGGCGGTC | 0.995 |
| TGCCTTGACA | 0.986 |
| GCGGACGTGT | 1.05 |
| GTGCAAGAGG | 0.988 |
| GTTCAAGTG | 0.975 |
| CGTATGAAGG | 0.898 |
| CCTCCCCGTA | 1.44 |
| ATCCTCAAGT | 1.05 |
| TCCTCGAG | 1 |
| GATGGGGCG | 1.02 |
| GTAACGTCAT | 1.06 |
| TAATCAG | 0.973 |
| AAGTATGGGC | 0.987 |
| AACCGCAGAG | 1.25 |
| CCGGCTTGGG | 1.02 |
| CGAACGTACC | 1.55 |
| TCGTGGCCCT | 0.99 |
| GTGAATCCTT | 0.962 |
| GGGAACATAG | 1.03 |
| TCGTGACAAG | 1 |
| TAAGAGTTAT | 1.06 |
| TGAGGTAAAA | 1 |
| TAATGCAACC | 1.48 |

| Sequence | switch fluorescence ratio |
| --- | --- |
| GTTGACACGA | 1.04 |
| TGAAATTTCG | 0.963 |
| AATTTCCAGG | 1.53 |
| ATATGCATTG | 1.03 |
| GAAAGAGTAA | 0.995 |
| TGAGATTGAT | 1 |
| CCCGTTACTA | 1.08 |
| AGTGGATGCC | 1.06 |
| TTTTGACG | 1.07 |
| AATAATACTA | 1.05 |
| GAAGGAATTA | 1.03 |
| ATTAATTACG | 1.05 |
| GAAATTACTG | 0.997 |
| TTTGTCTTTA | 1 |
| AATCGTCATA | 1 |
| TTAGCGTTGG | 0.988 |
| AGGATACGAG | 1.09 |
| AACGGCTACC | 1.31 |
| GGCGTGCAGG | 1.04 |
| AGGGCGGAAC | 1 |
| CTCCCCGCGG | 2.2 |
| TTATCTCGGG | 1 |
| TTCACGATAG | 0.999 |
| CTCATGAGGG | 1.01 |
| TAGGCTGGCG | 0.966 |
| CCGATGGAAA | 1.1 |

| Sequence | switch fluorescence ratio |
| --- | --- |
| CAGTCATCGG | 1 |
| AGCGCTGTTG | 1.02 |
| ACTACTTTCT | 1.01 |
| AAACAGACTT | 1.01 |
| TGAGCATGGT | 1.03 |
| TTCTACTA | 0.991 |
| GGGACCCTGG | 0.95 |
| CTAGTGTCCG | 1.01 |
| TGTGGGTAA | 0.983 |
| TTGCTAGTTT | 0.966 |
| TCTGGGGGCG | 0.931 |
| GATGTAACGG | 0.99 |
| CTACCAGTAA | 1.21 |
| AACGTAGCTA | 1.63 |
| GCCCGACGGC | 1.06 |
| AATTAGGAGA | 0.962 |
| TGAACGGGAC | 0.976 |
| GGCTGGGCGT | 1.02 |
| GCCTAGAATA | 0.959 |
| TGTGCTTCAT | 1.09 |
| GCAAGTTGTT | 1.01 |
| AATGGTGTTA | 1.04 |
| GGACTAGCTG | 0.948 |
| TCAAAAGATA | 1.01 |
| ATTGTTGTCG | 1.01 |
| GGTGGGCCTA | 1.02 |

| Sequence | switch fluorescence ratio |
| --- | --- |
| TCATTCGAGC | 0.994 |
| ACAGGTCGTC | 1.01 |
| GATGTGAGAA | 1.02 |
| GAGTTGGAC | 1 |
| ACATAGTTAT | 1.01 |
| GGCTTGCAGA | 0.975 |
| GGTTGCAGTT | 0.995 |
| ATCGGGAGGC | 0.953 |
| ATACTGACGA | 1.35 |
| TGCATGTAGC | 1.03 |
| AGTCAACGCT | 0.96 |
| TATGTCCGAT | 0.972 |
| AAGTGGAAGA | 0.994 |
| CACCTGCCTT | 1.1 |
| GGTATGCCGC | 0.892 |
| ATAATCCGTT | 1.02 |
| ATTTTACTCG | 0.979 |
| TGCTCCTGAG | 0.959 |
| CGGAATATCG | 1.01 |
| TCGCACGGGT | 1.08 |
| TCCGAATATA | 1.17 |
| AGTATACTAA | 1 |
| TGTTCCCGTT | 1.02 |
| AGTTCCATAA | 0.98 |
| CTTGATATGG | 1 |
| TTGCCAAAAG | 1.06 |

| Sequence | switch fluorescence ratio |
| --- | --- |
| CTCTGGCACG | 1.1 |
| CACGACCGGC | 1.07 |
| AAGAGTTCGG | 0.998 |
| AACACCATAA | 1.04 |
| ACATGATTGT | 0.982 |
| CTTCGAAAAT | 1.12 |
| ATCGAGGCAA | 4.88 |
| CTGGGATCG | 1 |
| CACCTCAATG | 1.1 |
| AAAGGTCAAA | 0.994 |
| TTTGTGTTA | 0.98 |
| TGGCAACGGG | 0.995 |
| CGTAAACCTT | 2.48 |
| ACTAGACGGC | 1.32 |
| TTGCGTTC | 1.04 |
| TAGTCCAAAC | 0.993 |
| CAAAGGATAT | 0.99 |
| CCTCTACTTG | 1.05 |
| GTAAAATAGT | 0.998 |
| GTTGAACGCC | 1.17 |
| GAGGTAATGA | 1.04 |
| GCTGATAAAA | 0.988 |
| CTACGAATAT | 1.27 |
| TGAAGTTGGA | 1.49 |
| TCCTTGCTGG | 1.23 |
| GCTTCACGAG | 0.988 |

| Sequence | switch fluorescence ratio |
| --- | --- |
| TAGCCCGAGG | 0.997 |
| GTTAAATTCC | 2.3 |
| ATGGGATTCC | 1.01 |
| CCTTATGGGT | 0.961 |
| AGCGAATTTG | 0.993 |
| GGCCATGACG | 0.95 |
| CGCCTGGGCG | 1.03 |
| GAAGCCCGCA | 1.13 |
| GTCAATGAAA | 0.988 |
| AGCATTTATT | 1.03 |
| GAAGTTGTAG | 1.02 |
| ACCCGTCTCT | 1.01 |
| GGCATCGATG | 1.04 |
| ATAATTTTTA | 0.984 |
| ATGACAAGCA | 1.1 |
| AAGTTTGGCC | 0.995 |
| ATAGGGGTAG | 0.975 |
| GATTCAGCGA | 1.05 |
| GACAAGGTGT | 1.25 |
| GATAATCATG | 1.02 |
| CGGGATAGCC | 0.988 |
| GGTTTCAG | 1.01 |
| CGCGTTAGGC | 0.983 |
| CCGGGTATTT | 1.04 |
| TCACTAGATG | 1.02 |
| AATGTATTCC | 1.07 |

| Sequence | switch fluorescence ratio |
| --- | --- |
| TACGGGCTGC | 1.01 |
| GTTTCTTGAG | 0.983 |
| GTTACCTATA | 1.07 |
| TAGATTGCTA | 0.967 |
| AGGGATATGA | 1.18 |
| TTTAACGG | 1.02 |
| CGATGGTGCG | 1.03 |
| CATGTTGACT | 0.957 |
| CCGGCTTCTG | 0.988 |
| GTTGGGCGCC | 0.987 |
| TTGATCATTC | 0.966 |
| CGTTATATA | 1.26 |
| ATATTCTCGC | 1.02 |
| CCGAGATGAG | 1.08 |
| CAATTATAAC | 1.04 |
| CCTAAAGTAA | 1.27 |
| TTGTTGCACG | 0.981 |
| TCAGGGTCGT | 0.973 |
| TACAATAGCG | 1.07 |
